Assay results taken from PubChem BioAssay AID1671194 (National Center for Advancing Translational Sciences (NCATS), 2021).
In all, about 140,000 compounds went through this assay and about 240 (0.17%) were called active. The inconclusive results got no clear call from the source; some entries with a clear call stand among them for comparison. The call rests on the fitted dose curve; in most records, active means well fitted inhibition curve with a large enough effect; inconclusive means small, poorly fitted or top-dose-only effect; inactive means no such curve, though single readings can be large or run the other way. Potencies of inconclusive entries are doubtful fits and often do not repeat.

Assay: Primary qHTS assay for inhibitors of alpha-synuclein gene (SNCA) expression; further: nearly all actives have a fitted effect of over 45% in size
Conditions: HEK-293 SNCA-luciferase knock-in, luminescence, 24 h; series mostly up to 57.2 µM
Potency means the concentration at half of the fitted maximal effect; tags describe the fitted curve by direction and shape.

Potency, inactive:
O=C(NCc1ccccn1)c1ccc(-c2ccc(N3CCCCC3)nc2)cc1
COc1ccccc1CNc1ncnc2ccc(-c3ccccc3OC)cc12
COCCCNc1ccnc(-c2nnc(C)n2-c2ccccc2)c1
COc1cccc(-c2noc(Nc3ccc(OC)c(OC)c3)n2)c1
COc1cc(S(=O)(=O)N2CCc3c(nc[nH]c3=O)C2)c(OC)cc1C
Cc1ccsc1C(=O)N1CCC2(CC1)N(C)C(=O)CS2(=O)=O
Cc1cc(C)cc(-c2ccc(CN3CCCC(NC(=O)c4cccc(Cl)c4)C3)cc2)c1 (configuration not stated)
CCc1noc(-c2ccn3c(CNC(=O)CCc4cccc(OC)c4)nnc3c2)n1
Cc1ccc(C(=O)N2CCCC(C(=O)N3CCC(c4ccccc4)CC3)C2)cc1 (configuration not stated)
COc1ccc(-c2cc(C(=O)NCCc3ccc(Cl)cc3)c3cnn(C)c3n2)cc1
O=C(CN1C(=O)CNC1=O)N1C[C@H](CO)C[C@H](CN2CCOCC2)C1
COC(=O)C1=C(C)N=C2SC=C(CC(=O)NCC3CC3)N2C1c1ccccc1OC (configuration not stated)
O=C(Nc1ccc(F)cc1)c1c[nH]c2cccnc12

Potency, inconclusive:
O=C(Nc1nc2ccccc2s1)C1CC(=O)N(c2n[nH]c3cccc(F)c23)C1 (configuration not stated) 5.62 µM [inhibitor, partial curve, poor fit]
CCCOc1cccc(C2c3c(-c4ccccc4O)n[nH]c3C(=O)N2Cc2ccco2)c1 (configuration not stated) 35.5 µM [inhibitor, single point]
COc1ccc(Cn2c3c(c(=O)n2Cc2ccccc2)CCN(Cc2cccnc2)C3)cc1 20 µM [inhibitor, partial curve]
CO[C@@H]1CCOC[C@H]1NS(=O)(=O)c1ccc2c(c1)N(C(C)=O)CCO2 6.31 µM [inhibitor, single point]
COc1ccc(C2Cn3nnc(C(=O)N4CCN(C(=O)c5ccc(F)cc5Cl)CC4)c3CO2)cc1 (configuration not stated) 39.8 µM [inhibitor, partial curve, poor fit]
O=C(CCSCc1cnn(-c2ccccc2)c1-n1cccc1)NCc1ccccc1Cl 2 µM [inhibitor, full curve]
COc1ccc(NS(=O)(=O)c2ccc(-c3cnc(C4CC4)o3)cc2)cc1Cl 2.24 µM [inhibitor, full curve, poor fit]
COc1ccc(C(=O)N2CC(c3nnc(C(C)C)o3)C3(CCOCC3)C2)cn1 (configuration not stated) 7.08 µM [inhibitor, single point]
CC1CCN(S(=O)(=O)c2ccc3nc(NCc4ccccc4)ccc3c2)CC1 39.8 µM [inhibitor, single point]
CCCCn1c(CN(C)C(C)c2ccccc2OC)cnc1S(=O)(=O)CC (configuration not stated) 39.8 µM [inhibitor, single point]
COC[C@@H]1CN(Cc2cc(C)nn2C)C[C@H]1c1nc(C)no1 1.78 µM [inhibitor, partial curve, poor fit]
COc1ccccc1Nc1c2c(nc3ccc(NC(=O)c4ccccc4F)cc13)CCCC2 39.8 µM [inhibitor, single point]
CN1CC(=O)N(C2CCC2)Cc2c(NCc3ccc(F)cc3)ncnc21 7.94 µM [inhibitor, full curve]
CCN(CC)CCCNC(=O)c1cn(CC(C)C)c(=O)c2c1c1ccccc1n2C 2.24 µM [inhibitor, partial curve, poor fit]
O=C(CN1C(=O)COc2ccc(C(=O)COc3cccc(F)c3)cc21)NCc1ccco1 3.16 µM [inhibitor, partial curve, poor fit]
O=C1CCN(Cc2ccc(C(F)(F)F)cc2)CCCCCCN1 39.8 µM [inhibitor, single point]
CN1C(=O)c2ccccc2Sc2ccc(NC(=O)NCc3ccc(Cl)cc3)cc21 39.8 µM [inhibitor, single point]
COc1ccc(Oc2ncc3nc(C)c(=O)n(Cc4ccc(F)cc4)c3n2)cc1 39.8 µM [inhibitor, single point]
COc1ccc(S(=O)(=O)N(CC(=O)Nc2ccccc2Cl)Cc2ccccc2)cc1 14.1 µM [inhibitor, partial curve, poor fit]
COc1ccccc1C(=O)Oc1c(Sc2ccccc2)c(C)nn1-c1ccccc1 25.1 µM [inhibitor, single point]
CCOc1ccc(NC(=O)Cn2c(-c3ccc(F)cc3)nc(C)c(CCO)c2=O)cc1 7.94 µM [inhibitor, single point]
O=C(NC1CCCCC1)N1Cc2[nH]cnc2C[C@H]1c1nc(-c2ccc(Cl)cc2)no1 7.94 µM [inhibitor, single point]
CCCSCCCNC(=O)CN1C(=O)COc2ccc(S(=O)(=O)N3CCCC3)cc21 22.4 µM [inhibitor, partial curve, poor fit]
CCOCCOC1CCN(C(=O)c2ccco2)CC1 2.51 µM [inhibitor, full curve]
COc1ccc(CC(=O)N2CCC3(CC2)CN(C(=O)c2ccc(Cl)cc2)CCO3)cc1 17.8 µM [inhibitor, single point]
CCc1ccc(NC(=O)CSc2nc3c(c(=O)[nH]2)CN(Cc2ccc(C)cc2)CC3)cc1 17.8 µM [inhibitor, single point]
Cc1cnc(CC2CCN(S(=O)(=O)c3ccc4c(c3)CCC4)C2)n1Cc1ccccc1 (configuration not stated) 39.8 µM [inhibitor, single point]
COc1nnc(-c2ccc(N3CCCCC3)c(NC(=O)c3ccccc3Cl)c2)c2ccccc12 10 µM [inhibitor, partial curve, poor fit]
CCc1ccc(NC(=O)C(=O)NCC(c2cccnc2)N2CCc3ccccc3C2)cc1 (configuration not stated) 25.1 µM [inhibitor, single point]
